The values that follow come from PubChem BioAssay AID1159614 (National Center for Advancing Translational Sciences (NCATS), 2016).

SMILES strings stand for the structures. In all, about 45,000 compounds went through this assay and about 65 (0.1%) were called active. Calls come from the whole dose curve; as a rule, active = well fitted activation curve with a large enough effect; inconclusive = small, poorly fitted or top-dose-only effect; inactive = no such curve, though single readings can be large or run the other way. The list shows a part of the results.

Chain of UniProt P54803 (P54803 whole entry, looked up): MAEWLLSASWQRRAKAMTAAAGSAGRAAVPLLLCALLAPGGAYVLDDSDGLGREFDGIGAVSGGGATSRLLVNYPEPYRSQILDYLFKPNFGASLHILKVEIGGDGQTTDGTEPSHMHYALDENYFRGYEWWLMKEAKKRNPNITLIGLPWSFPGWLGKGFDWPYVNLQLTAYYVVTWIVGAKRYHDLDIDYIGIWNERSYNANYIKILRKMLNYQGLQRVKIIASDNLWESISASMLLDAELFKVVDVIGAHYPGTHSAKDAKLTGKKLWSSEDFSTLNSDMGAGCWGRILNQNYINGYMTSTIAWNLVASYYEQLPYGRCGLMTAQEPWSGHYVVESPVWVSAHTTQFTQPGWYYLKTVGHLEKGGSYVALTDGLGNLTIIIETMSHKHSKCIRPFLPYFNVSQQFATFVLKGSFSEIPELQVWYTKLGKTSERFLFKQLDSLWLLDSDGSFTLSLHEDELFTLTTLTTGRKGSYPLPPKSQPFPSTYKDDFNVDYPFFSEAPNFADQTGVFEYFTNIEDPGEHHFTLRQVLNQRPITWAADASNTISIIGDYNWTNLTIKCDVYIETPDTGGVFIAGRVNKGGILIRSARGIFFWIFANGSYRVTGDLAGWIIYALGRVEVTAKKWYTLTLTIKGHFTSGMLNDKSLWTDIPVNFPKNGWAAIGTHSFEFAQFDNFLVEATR

The assay addresses Galactocerebrosidase (Homo sapiens) (UniProt P54803). In words: A Novel Cell-Based Assay to Identify Small Molecules for B -Galactocerebrosidase. Note: 0% is about no effect; nearly all actives have a fitted effect of over 65% in size. To be noted: 145M-Twi-hGALC-G270D cells (Twitcher mouse brain line with human GALC G270D), HMU-beta-Gal fluorescence, 48 h; series mostly up to 57.5 µM; activation: at the top concentration. Put shortly:
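Brain-derived Twitcher mouse 145M-Twi cells stably expressing human GALC-G270D or wild-type GALC, treated live, then residual GALC activity read by fluorescence of HMU-b-Gal substrate (0.1 mM final) in citrate-phosphate buffer pH 5.2 with sodium taurocholate. Signal increase indicates enhancement.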
Regarding `Cn1cc(S(=O)(=O)N2CCOCC2)cc1C(=O)Nc1cccc(C#N)c1`, the “activation” value was inactive: 5.1%.

In the case of `CC(C)Oc1ccc(CNC(=O)Cn2nc(N3CCN(c4ccccc4)CC3)ccc2=O)cc1`, the “activation” value was inactive: -7.3%.

As to `Cc1ccc(CSc2nc(-c3ccccc3C)nc3c2Cc2c(CO)cnc(C)c2O3)cc1`, the “activation” value was inactive: -2.98%.

`O=c1[nH]c2ccccc2n1CCCN1CCN(C(c2ccccc2)c2ccccc2)CC1`: the “activation” value is inactive: -10.5%.

For the compound `Cn1c(=O)c2c(SCC(=O)N3CCc4ccccc43)nc(-c3ccc(Cl)cc3)nc2n(C)c1=O`, the “activation” value is inactive: -13%.

For the compound `O=C1N(Cc2ccccc2)c2ccccc2C1(O)c1c[nH]c2ccccc12` (stereo unspecified), the “activation” value is inactive: -8.89%.

With `Cc1ccc(NC(=O)C2CCCN2S(=O)(=O)c2ccc3c(c2)n(C)c(=O)c(=O)n3C)cc1C` (stereo unspecified), the “activation” value is inactive: -3.92%.

With `Cn1ncc2c(NCc3ccc(F)cc3)ncnc21`, the “activation” value was inactive: -10.5%.

`CCOC(=O)c1c(S(=O)(=O)N2CCC(C(=O)N3CCN(c4ccc(F)cc4)CC3)CC2)c(C)n(C)c1C`: the “activation” value is inactive: -9.1%.

Regarding `CCn1nnc2cc(C(=O)Nc3ccc(Br)cc3F)ccc21`, the “activation” value is inactive: -12.4%.

Turning to `CN(C)S(=O)(=O)c1ccc2c(c1)N(CC(=O)NCc1ccccc1)C(=O)C1CCCCN21` (stereo unspecified), the “activation” value is inactive: 2.01%.

For the compound `Cc1ccccc1CCNC(=O)c1ccc2c(c1)c(C)c(C)n2C`, the “activation” value was inactive: -6.11%.

In the case of `O=C(O)Cc1ccc(CCNS(=O)(=O)c2ccc(Cl)cc2)cc1`, the “activation” value is inactive: -7.73%.

For the compound `CCCCCn1c(=O)[nH]c2cc(C(=O)Nc3cc(OC)cc(OC)c3)ccc2c1=O`, the “activation” value was inactive: -16.8%.

As to `Cn1nnnc1SCCCNCc1ccc(-c2ccc(Br)cc2)o1`, the “activation” value was inactive: -13.7%.

For `Cc1cccc(CNC(=O)C2CCCN(S(=O)(=O)c3cn(C)cn3)C2)c1` (stereo unspecified), the “activation” value was inactive: -12.7%.

Take `COc1ccccc1CNC(=O)CCn1c(=O)c2ccccc2n(CC(=O)Nc2ccc(C)cc2)c1=O`: the “activation” value is inactive: 6.26%.

Regarding `Cc1ccc2oc(=O)c3cc(C(=O)N4CCN(c5ccccc5)CC4)sc3c2c1`, the “activation” value is inactive: 3.57%.

Take `Cc1ccc(NC(=O)CSc2nc3ccccc3nc2Cc2ccccc2F)cc1F`: the “activation” value is inactive: 7.73%.

Take `Cc1nn(S(=O)(=O)c2ccc(C(C)C)cc2)c(C)c1S(=O)(=O)N1CCCCCC1`: the “activation” value was inactive: -4.72%.

With `CCCCCNC(=O)c1c[nH]c2ccc(S(=O)(=O)N3CCC(C)CC3)cc2c1=O`, the “activation” value was inactive: -10.9%.

For `CCC1CN(C(=O)NCc2ccc(C)cc2)c2cc(C)ccc2O1` (stereo unspecified), the “activation” value was inactive: -10.6%.

`CCc1ccccc1NC(=O)C1(S(=O)(=O)c2ccc(Cl)cc2)CC1`: the “activation” value is inactive: -11.3%.

On to `COc1ccc(-c2nsc(NC(=O)COc3ccc(C)c(C)c3)n2)cc1`, for which the “activation” value was inactive: 5.3%.

Regarding `Cc1ccc(OCC(=O)Nc2ccc(Cl)c(-c3nc4ncccc4o3)c2)cc1C`, the “activation” value is inactive: -4.61%.

Take `Cc1cc(C)cc(NC(=O)CN2C(=O)CSc3ccc(S(=O)(=O)N(C)C)cc32)c1`: the “activation” value is inactive: -4.1%.

Consider `CCOC(=O)c1c(C)oc2ncnc(Nc3ccc(F)cc3Cl)c12`, for which the “activation” value was inactive: -9.25%.

As to `Cc1ccc(C)c(N2CCN(C(=O)c3cc4ccc5cccnc5c4[nH]3)CC2)c1`, the “activation” value was inactive: -7.12%.

Turning to `COc1ccc(CNC(=O)c2cc3c(=O)[nH]c4ccc(C)cc4c3s2)c(OC)c1`, the “activation” value was inactive: -21.7%.

Turning to `COc1ccc(CCNC(=O)c2cc(-c3ccc(C)cc3)nc3n[nH]c(-c4ccccc4)c23)cc1OC`, the “activation” value is inactive: -11.1%.

As for `COc1ccc(OC)c(NC(=O)CCn2cnnn2)c1`, the “activation” value was inactive: -1.3%.

As for `COc1cc(C(=O)Nc2nnc(S(=O)(=O)N(C)c3ccccc3)s2)cc(OC)c1OC`, the “activation” value was inactive: -15.1%.

Regarding `Cc1ccc(CN2C(=O)c3ccccc3Sc3ccc(C(=O)NC4CCCCC4)cc32)cc1`, the “activation” value was inactive: -4.17%.

Take `COc1ccc(-c2oc3ncn4nc(-c5cccc(C)c5)nc4c3c2-c2ccc(OC)cc2)cc1`: the “activation” value is inactive: -11.7%.

Consider `COc1ccccc1CNC(=O)CS(=O)(=O)c1cccc2nsnc12`, for which the “activation” value was inactive: -7.82%.

For the compound `Cc1ccc(-c2nc3n(n2)C(c2ccccc2C)C=C(c2ccc(Cl)cc2)N3)cc1` (stereo unspecified), the “activation” value was inactive: -0.743%.

For the compound `COc1cc(C(=O)NCC(c2ccc(N(C)C)cc2)N2CCc3ccccc32)cc(OC)c1OC` (stereo unspecified), the “activation” value was inactive: -12%.

As to `COc1ccc(CNC(=O)C2CCN(c3nc4ccccc4[nH]3)CC2)c(OC)c1`, the “activation” value was inactive: -17.7%.

On to `CN1CCN(C(c2ccccc2)c2ccccc2)CC1`, for which the “activation” value is inactive: -13.4%.

On to `COc1cc(CN(C(=O)COc2ccc(Br)cc2)c2ccccn2)cc(OC)c1OC`, for which the “activation” value is inactive: -36.2%.

`O=C(NC1CC(=O)N(c2ccc(F)cc2)C1)c1cccs1` (stereo unspecified): the “activation” value is inactive: -8.93%.

`O=C(CSc1ncc(CO)n1Cc1ccccc1)Nc1nc2ccccc2s1`: the “activation” value was inactive: -40.8%.

As to `Cc1ccn2c(Nc3ccc(F)cc3)c(-c3ccc(C)o3)nc2c1`, the “activation” value is inactive: -11.6%.

As to `COC(=O)[C@@H]1CC2=CC(=O)CC[C@]2(C)[C@@]23O[C@@H]2C[C@@]2(C)[C@@H](CC[C@@]24CCC(=O)O4)[C@H]13`, the “activation” value was inactive: -16.7%.

For `Cc1nn(C(=O)c2ccc(Cl)cc2)c(C)c1Sc1ccc(Cl)cc1`, the “activation” value is inactive: -9.45%.

In the case of `CC(=O)c1sc2c(c1C)c(=O)n(-c1ccc(Cl)cc1)c(=O)n2Cc1cc(=O)n2cc(Cl)ccc2n1`, the “activation” value was inactive: -9.84%.

For `CCCCOc1ccc(OC(=O)c2sc3ncn(Cc4cccc(F)c4)c(=O)c3c2C)cc1`, the “activation” value was inactive: -9.91%.

For the compound `COc1cc2nc(SCc3ccc(Cl)cc3)n3nc(CCn4nc(C)cc4C)nc3c2cc1OC`, the “activation” value was inactive: 0.517%.

Turning to `CCCSc1nc2sc3c(c2c(=O)n1-c1ccccc1)CCC(C)C3` (stereo unspecified), the “activation” value is inactive: 3.54%.

As for `Cc1cc(NC(=O)CSc2nc(-c3ccccc3F)nc3c2c(=O)n(C)c(=O)n3C)no1`, the “activation” value is inactive: -17.6%.

`Cc1oc2c(c1C(=O)NCc1cccc(Br)c1)C1=NCCN1C=N2`: the “activation” value was inactive: -3.11%.

Consider `COc1cc(NC(=O)C(CC(C)C)NS(=O)(=O)c2ccc3c(c2)CCCC(=O)N3)cc(OC)c1` (stereo unspecified), for which the “activation” value was inactive: 3.01%.

As for `Cc1ccc(CNC(=O)CCCn2c(=O)c3ccccc3n(CC(=O)C(C)(C)C)c2=O)cc1`, the “activation” value was inactive: -1.49%.

For `CCOC(=O)Cn1c(=O)n(CC2CCCO2)c2nc(-c3ccc(OC)cc3OC)nc(C(N)=O)c21` (stereo unspecified), the “activation” value was inactive: -20.1%.

`COc1cccc(NC(=O)c2sc3nc(N4CCOCC4)c4c(c3c2N)CC(C)(C)OC4)c1`: the “activation” value is inactive: -26.8%.

For `Cc1cccc(NC(=O)NCCn2c(=O)oc3ccc(C)cc32)c1`, the “activation” value is inactive: -20.1%.

On to `COc1cccc(NC(=O)Cn2cc(C(=O)C3CCCCC3)c3ccccc32)c1`, for which the “activation” value is inactive: -11.6%.

As to `CCOC(=O)c1c(NC(C)=O)c2c3c(sc2n1Cc1nc(-c2ccccc2OCC)oc1C)CCCC3`, the “activation” value is inactive: -9.33%.

With `Cc1ccc(/C=C(\C#N)C(=O)Nc2cc(C)ccc2C)cc1`, the “activation” value was inactive: -16.3%.

Consider `Cc1ccc(C)c(N2CCN(C(=O)c3cnc4c(-c5ccccc5)c(C)nn4c3C)CC2)c1`, for which the “activation” value is inactive: -3.57%.

As for `Cc1ccc(C)c(CN2C(=O)c3ccccc3S(=O)c3ccc(C(=O)NCc4ccccc4Cl)cc32)c1` (stereo unspecified), the “activation” value is inactive: -5.26%.
